The record followed here is ChEMBL document CHEMBL1201862, “PubChem BioAssay data set” (2004).

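How tested: cells in 96-well plates exposed to compound for 48 hours at five concentrations. GI50 marks 50% less growth.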 The source made the active and inactive calls. No stated cut-off is given here; in the data, active = GI50 up to about 1.1 µM and inactive = higher.

The test system of this assay is NCI-H322M. In words: DTP human tumour cell line panel, 48 h.
Consider `O=C(NN1C(=O)C(Cl)C1c1cccc(O)c1)c1ccccc1O` (configuration not stated), for which the GI50 is inactive: > 100 µM. The same measure for `C/C(=N/O)c1sc(-c2nc(C)c(/C(C)=N\O)s2)nc1C`: inactive: > 100 µM. The same measure for `N#CCCSC1SC(=C2SC3=C(SCCS3)S2)SC1SCCC#N` (configuration not stated): inactive: > 100 µM; for `CCOC(=O)[C@@]1(C)C=C2O[C@@H]3OC4(CCCCC4)O[C@@H]3C2=C2C(O)=CC=C(O)[C@]21C(=O)OC`: inactive: > 68.1 µM.

For `CO[C@H]1O[C@@H]2CO[C@@H](c3ccccc3)O[C@H]2C[C@]12CCC/C=C\CO2`, the GI50 was inactive: 73.1 µM. Take `Cc1ccccc1OC(C)C(=O)NN1C(=O)CSC1c1ccc(Cl)cc1` (configuration not stated): the GI50 was inactive: 20.7 µM. Regarding `CCOP(=O)(CC1OC(CO)C(O)C1O)OCC` (configuration not stated), the GI50 was inactive: > 100 µM. With `C=C1C(=O)OC2C1C(OC(=O)/C(C)=C/C)CC1(C)C(=O)CCC(=C)C21` (configuration not stated), the GI50 is inactive: 20.4 µM. As for `CSc1nnc(CCC(=O)Nc2c(C)cccc2C)o1`, the GI50 was inactive: > 100 µM. Regarding `CCC12C=CCN3CCC4(c5cc(C6(C(=O)OC)CCCCCc7c6[nH]c6ccccc76)c(OC)cc5N(C)C4C(O)(C(=O)OC)C1OC(C)=O)C32` (configuration not stated), the GI50 was inactive: 4.62 µM. As for `COc1ccccc1Cn1[nH]c(=O)c2cc([N+](=O)[O-])ccc21`, the GI50 was inactive: > 100 µM. Turning to `CC1=C(C(=O)Nc2ccc([N+](=O)[O-])cc2)C(c2ccco2)C(C(=O)Nc2ccc([N+](=O)[O-])cc2)=C(C)N1`, the GI50 was inactive: 12.2 µM.

`COc1ccc(-c2cn3c(n2)sc2cc(C)ccc23)cc1`: the GI50 was inactive: 31.6 µM.

`O=C1/C(=C/c2cc(O)c(O)c(O)c2)Oc2cc(O)cc(OC3OC(CO)C(O)C(O)C3O)c21` (configuration not stated): the GI50 was inactive: 45.3 µM. As for `O=c1[nH]c(=O)c2c([nH]1)[nH]c1ccc(Br)cc12`, the GI50 is inactive: 54.7 µM. Take `N#CC1=C(N)N(/N=C/c2ccccc2)C(c2ccccc2)C1(C#N)C#N` (configuration not stated): the GI50 was inactive: 18.1 µM. As to `CCOC(=O)C1=C(C)N(NC(N)=O)C2(N)N(NC(N)=O)C(C)=C(C(=O)OCC)C12C(=O)OCC` (configuration not stated), the GI50 is inactive: > 100 µM.

For the molecule `CCCCCC/C=C\CCCCCCCCC(=O)c1cccc(OC)c1OC`, the GI50 was inactive: > 100 µM.

For `N#CC(O)CCOCc1ccccc1` (configuration not stated), the GI50 was inactive: > 100 µM.

As for `CC1(C)OC[C@@H](C[C@H](O)COCc2ccccc2)O1`, the GI50 was inactive: > 100 µM.

As to `CC1=N/C(=C\c2cccc3ccccc23)C(=O)O1`, the GI50 is inactive: > 100 µM. The same measure for `CCn1c(SCC(=O)NNC(=S)Nc2ccc(Cl)cc2)nc2ccccc2c1=O`: inactive: 53.5 µM; for `COC(=O)/C(=N\NC(N)=S)C(C(=O)OC)C(=O)C(=O)Nc1ccc(C)cc1` (configuration not stated): inactive: > 100 µM; for `CCC(=O)NC(Nc1ccccc1F)(C(F)(F)F)C(F)(F)F`: inactive: > 100 µM. As for `CCOC(=O)c1[nH]c2nc(SC)nc(Nc3ccccc3Cl)c2c1N`, the GI50 was inactive: 19.5 µM. The same measure for `CCOc1cc2c(cc1OC)c[n+](C)c1c3cc(OC)c(OC)cc3ccc21`: inactive: 46.2 µM. For the molecule `O=c1[nH]nc(Cc2ccccc2)n1/N=C/c1cccs1`, the GI50 is inactive: > 100 µM.

Consider `CC(=O)OCC1OC(n2c(=O)[nH]c(=O)c3sccc32)C(Br)C1OC(C)=O` (configuration not stated), for which the GI50 was inactive: > 100 µM. The same measure for `O=C1C[C@@H]2C(COC(=O)c3ccccc3)N(OCc3ccccc3)C[C@@H]2O1` (some centres not stated): inactive: > 100 µM; for `Cc1ccc(/C=C2\Sc3scc(-c4ccccc4)[n+]3C2=O)cc1`: inactive: 23.9 µM. The same measure for `COc1cc2c(cc1OC)C(O)[C@H](Br)C(C)(C)O2` (some centres not stated): inactive: > 100 µM.

`C=C1CC(Cn2cc(Br)c(=O)[nH]c2=O)(c2ccc(-c3ccccc3)cc2)OC1=O` (configuration not stated): the GI50 is inactive: 7.78 µM.

Broadly, the GI50 is the concentration that inhibits growth by half.
